Measurements reported in patent EP0739343B1, “WATER SOLUBLE ONIUM SALT OF TAXO-DITERPENOID” (THE SCRIPPS RESEARCH INSTITUTE, priority 1994, dated 1995).

Tested on: cell line panel including leukemia, ovarian, lung, and breast carcinoma cells
Assay: Cytotoxicity against a cell line panel, XTT assay
Settings: 72 hours

SMILES | IC50 values (range over the cell line panel)
CC(=O)O[C@H]1C(=O)[C@@]2(C)[C@H]([C@H](OC(=O)c3ccccc3)[C@]3(O)C[C@H](OC(=O)[C@H](Oc4cccc[n+]4C)[C@@H](NC(=O)c4ccccc4)c4ccccc4)C(C)=C1C3(C)C)[C@]1(OC(C)=O)CO[C@@H]1C[C@@H]2O [compound 2, Taxol-2'-MPT] | 10^-5 to 10^-12 M
CC(=O)O[C@H]1C(=O)[C@@]2(C)[C@H]([C@H](OC(=O)c3ccccc3)[C@]3(O)C[C@H](OC(=O)[C@H](O)[C@@H](NC(=O)c4ccccc4)c4ccccc4)C(C)=C1C3(C)C)[C@]1(OC(C)=O)CO[C@@H]1C[C@@H]2O [taxol, Taxol, reference compound] | 10^-5 to 10^-12 M
